# The least precise scores are not listed. The source holds two more conditions with little spread; they are left out. Read del as a deletion of the residues named and ins as an insertion between two positions. For some assays here: The concentration of ogerin is not given here.
# B1: GPR68, Q15743 (parent)
# chain: MGNITADNSSMSCTIDHTIHQTLAPVVYVTVLVVGFPANCLSLYFGYLQIKARNELGVYLCNLTVADLFYICSLPFWLQYVLQHDNWSHGDLSCQVCGILLYENIYISVGFLCCISVDRYLAVAHPFRFHQFRTLKAAVGVSVVIWAKELLTSIYFLMHEEVIEDENQHRVCFEHYPIQAWQRAINYYRFLVGFLFPICLLLASYQGILRAVRRSHGTQKSRKDQIQRLVLSTVVIFLACFLPYHVLLLVRSVWEASCDFAKGVFNAYHFSLLLTSFNCVADPVLYCFVSETTHRDLARLRGACLAFLTCSRTGRAREAYPLGAPEASGKSGAQGEEPELLTKLHPAFQTPNSPGSGGFPTGRLA
# Assays:
# [1] = variants of: B1; experiment: cAMP reporter score (Enrich2 score, wild type = 0); higher = more signal; HEK293T, FACS bins
# [2] = variants of: B1; experiment: surface expression score (Enrich2 score, wild type = 0); higher = more signal; HEK293T, FACS bins
Variant,cAMP reporter score ([1]; pH 5.5),"cAMP reporter score ([1]; pH 6, modulator: ogerin)","cAMP reporter score ([1]; pH 6.5, modulator: ogerin)",surface expression score [2],cAMP reporter score ([1]; pH 6)
L121Y,-0.448,-1,-0.574,-2.95,–
A122_A124del,-1.2,-0.845,-0.597,-2.41,-0.345
A122_V123insG,-1.6,-1.68,-0.403,-2.25,-0.195
A122del,-1.6,-1.13,-1.11,-2.33,-0.903
A124_H125insG,-0.498,-1.98,-0.711,-2.66,-0.955
A124_H125insGS,-1.58,-1.63,-1.42,-2.05,-0.999
H125A,-1,-1.2,–,–,-0.802
H125C,1.14,-0.941,-0.941,-1.5,0.094
H125D,-0.4,-0.74,-0.367,–,–
H125F,-0.206,-0.622,-0.494,-0.431,–
H125G,-2.85,-2.08,-0.649,–,-1.26
H125I,-0.418,-0.765,-1.22,-1.12,–
H125K,1.05,-0.335,-0.897,-1.5,-0.02
H125L,-1.07,-1.36,-0.966,-2.03,-1.12
H125N,-0.471,-0.61,-0.402,-0.598,-0.243
H125Q,1.14,0.576,0.188,-0.927,-0.638
H125R,-0.752,-1.27,-0.673,-0.74,-0.307
H125S,-0.776,–,-0.602,–,-0.798
H125T,-1.66,-1.03,-0.634,-2.14,-1.19
H125V,-2.59,–,-0.333,-2.76,–
H125W,-0.776,-0.99,-1.53,-1.06,-1.12
H125Y,-0.406,-0.469,-0.523,-0.538,-0.313

Variant,cAMP reporter score ([1]; pH 5.5),"cAMP reporter score ([1]; pH 6, modulator: ogerin)","cAMP reporter score ([1]; pH 6.5, modulator: ogerin)",surface expression score [2],cAMP reporter score ([1]; pH 6)
P126_F127insG,-1.13,-1.29,-1.31,-2.93,-0.184
F127A,-0.914,0.366,1.25,–,-0.361
F127C,0.982,–,–,-0.128,-0.828
F127E,-0.174,-1.38,-0.48,0.832,-1.47
F127G,-1.66,–,-1.29,1.82,–
F127H,-0.581,-1.14,-1.76,1.61,–
F127I,-0.698,-1.1,-0.271,-0.816,-0.517
F127K,-1.62,-1.42,-0.779,1.32,-0.839
F127L,0.042,1.09,-0.019,0.824,-1.79
F127M,0.122,0.575,–,0.865,-0.433
F127N,-0.718,-1.53,-1.09,2.03,-0.702
F127P,-1.3,-1.28,-0.607,-1.38,-1.03
F127R,-1.24,-1.64,-1.62,1.11,-1.08
F127S,-1.71,–,-0.936,1,-0.568
F127T,-0.614,-1.48,-0.844,2.11,-0.906
F127V,0.011,-0.729,-1.45,-0.263,-0.811
F127W,-0.31,-0.145,-1.46,–,-0.604
F127Y,-0.552,-1.12,-2.03,-0.388,-1.12
F127_F129del,-1.33,-1.14,-0.993,-3.73,-0.423
F127_R128insG,-0.077,-0.012,-0.978,-1.29,–
F127del,-0.617,-1.16,-0.632,-0.316,-1.07
R128_F129insGS,-1.26,–,-1.88,-3.54,–

Variant,cAMP reporter score ([1]; pH 5.5),"cAMP reporter score ([1]; pH 6, modulator: ogerin)","cAMP reporter score ([1]; pH 6.5, modulator: ogerin)",surface expression score [2],cAMP reporter score ([1]; pH 6)
R128_H130del,-0.777,-1.36,-1.3,-2.75,-1.35
R128del,-1.69,-0.881,-0.685,-2.17,-0.719
Q131_F132insG,-1.9,-1.38,-1.1,-2.22,-1.22
Q131_R133del,-0.795,-1.3,-0.671,-1.99,-0.447
F132_T134del,-1.73,-1.6,-1.09,-2.69,-0.642
L135A,0.303,-0.196,-1.08,–,0.053
L135C,0.249,0.176,-0.095,-0.556,-0.568
L135E,-1.14,-0.978,-1.18,-2.5,0.893
L135F,-0.025,-0.721,-0.009,-0.574,0.669
L135G,-0.588,-0.652,-0.631,-3.49,-0.761
L135H,0.89,0.065,-0.06,-1.67,-1.31
L135I,0.197,-0.167,0.505,-0.397,1.29
L135K,0.071,0.119,-0.684,-2.29,-1.01
L135M,0.803,1.54,2.36,1.06,2
L135N,-0.424,-0.639,-0.458,-0.062,–
L135P,0.526,–,0.049,-1.22,-0.066
L135R,-1.34,0.191,-1.73,0.001,-1.19
L135S,-0.713,–,-0.915,-1.68,-1.42
L135T,1.4,0.69,0.49,-0.447,1.64
L135V,1.75,0.936,1.33,0.791,2.41
L135W,0.04,-0.027,-0.494,–,-0.72
